Among all 310,000 compounds or so, about 14,000 (4.5%) showed an effect of 50% or more. The effect is printed as a negative number. The list shows a part of the results.
target: human ether-à-go-go-related gene (hERG) potassium channel (human, UniProt Q12809); test: primary screen, population patch clamp on CHO cells stably expressing hERG
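Further: peak tail current of the secondary pulse compared with the same well before compound.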

Sequence of human ether-à-go-go-related gene (hERG) potassium channel (Q12809 whole entry, looked up): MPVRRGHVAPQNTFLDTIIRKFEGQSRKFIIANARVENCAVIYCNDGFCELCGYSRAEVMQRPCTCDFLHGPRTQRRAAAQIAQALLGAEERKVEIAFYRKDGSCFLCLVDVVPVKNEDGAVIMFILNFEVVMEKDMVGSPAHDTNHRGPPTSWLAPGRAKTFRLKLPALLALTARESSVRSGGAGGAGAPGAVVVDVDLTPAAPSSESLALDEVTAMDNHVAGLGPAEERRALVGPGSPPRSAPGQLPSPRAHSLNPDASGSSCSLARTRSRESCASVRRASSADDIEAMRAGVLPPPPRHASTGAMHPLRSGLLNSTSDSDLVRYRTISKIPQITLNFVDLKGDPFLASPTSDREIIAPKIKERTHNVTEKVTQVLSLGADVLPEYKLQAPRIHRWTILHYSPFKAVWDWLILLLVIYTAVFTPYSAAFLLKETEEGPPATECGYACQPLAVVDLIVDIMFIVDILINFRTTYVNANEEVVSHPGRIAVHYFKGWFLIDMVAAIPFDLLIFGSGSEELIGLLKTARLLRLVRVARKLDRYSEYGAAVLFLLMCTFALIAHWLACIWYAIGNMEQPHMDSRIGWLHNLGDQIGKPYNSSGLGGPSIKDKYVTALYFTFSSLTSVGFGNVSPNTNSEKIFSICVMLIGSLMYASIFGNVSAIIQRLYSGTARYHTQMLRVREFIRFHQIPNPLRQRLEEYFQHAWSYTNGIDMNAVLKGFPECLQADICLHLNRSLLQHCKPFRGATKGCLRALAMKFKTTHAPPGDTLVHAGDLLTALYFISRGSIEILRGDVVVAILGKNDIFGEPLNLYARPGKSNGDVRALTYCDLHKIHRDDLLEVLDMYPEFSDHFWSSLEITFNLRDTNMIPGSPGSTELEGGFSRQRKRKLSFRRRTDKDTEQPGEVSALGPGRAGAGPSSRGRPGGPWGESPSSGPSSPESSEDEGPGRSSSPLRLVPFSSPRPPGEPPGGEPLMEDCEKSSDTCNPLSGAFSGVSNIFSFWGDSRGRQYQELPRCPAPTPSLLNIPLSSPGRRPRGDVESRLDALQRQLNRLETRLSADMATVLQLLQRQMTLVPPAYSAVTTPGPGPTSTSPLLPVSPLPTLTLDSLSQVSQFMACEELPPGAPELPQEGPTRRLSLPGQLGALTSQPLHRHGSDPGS

| Structure (SMILES) | hERG current change (%, negative = inhibition) at 10uM [%] |
| --- | --- |
| COc1cc(C2C(C#N)=C(N)Oc3n[nH]c(-c4cccnc4)c32)ccc1OCC(N)=O (stereo not shown) | -3.5 |
| Cc1c(C(=O)N(Cc2ccccc2)C2CCS(=O)(=O)C2)oc2ccccc12 (stereo not shown) | -38.5 |
| CC(=O)NCCn1c(SCc2cccc([N+](=O)[O-])c2)nc2ccccc2c1=O | 1.95 |
| NC1=NC2(CCC(c3ccccc3)CC2)n2c(nc3ccccc32)N1 (stereo not shown) | -40.8 |
| Cn1ncc(Cl)c1C(=O)Nc1ccncc1 | 8.99 |
| CC(=O)Nc1ccc(NC(=O)CSC2=NS(=O)(=O)c3cc(Cl)ccc3N2)cc1 | 6.45 |
| CCOC(=O)C(=O)Nc1ccc(OC)c(Cl)c1 | 6.78 |
| Cn1cc(S(=O)(=O)c2ccccc2)c(=O)c2cc(F)c(N3CCOCC3)cc21 | 7.18 |
| Cc1onc(-c2ccccc2)c1C(=O)N/N=C/c1ccc([N+](=O)[O-])s1 | -4.85 |
| CCCn1c(C)cc(-c2csc(N)n2)c1C.Cl | 12.7 |
| Cc1c(CNC(=O)c2nn3c(c2Cl)NC(c2ccccc2)CC3C(F)(F)F)cnn1C (stereo not shown) | -4.42 |
| COc1cccc(CNc2ccc(F)c(Cl)c2)c1 | 1.33 |
| CC(=O)C1CCC2C3CCC4=CC(=O)CC[C@]4(C)[C@@]3(F)C(O)C[C@]12C (stereo partly shown) | 10.2 |
| Cc1c(Cl)cccc1NC(=S)N1CCN(C(=O)c2ccco2)CC1 | -1.17 |
| CCOc1cc(/C=C/c2ccc3cccc([N+](=O)[O-])c3n2)cc(Cl)c1O | 14.6 |
| CCCCCCCCc1nnc(N)s1 | -16.2 |
| COC(=O)C1(CC2CC(c3cccc(Br)c3)=NO2)CCN(C(=O)OC(C)(C)C)CC1 (stereo not shown) | -14.5 |
| CC(=O)N(CCCCl)C(C#N)c1ccccc1 (stereo not shown) | 33.8 |
| Cc1ccc(C)c(Cc2c(C)nc(C)[nH]c2=O)c1 | 12.5 |
| O=C(Nc1cc(Cl)ccc1Cl)c1ccc(-c2ccccc2)cc1 | -2.52 |
| NS(=O)(=O)c1cccnc1Nc1cccc(C(F)(F)F)c1 | -9.51 |
| CCCOc1ccc(C(=O)CCCC(=O)c2ccc(OCCC)cc2)cc1 | 22 |

| Structure (SMILES) | hERG current change (%, negative = inhibition) at 10uM [%] |
| --- | --- |
| COc1ccc(N2C(=O)/C(=C/c3ccc([N+](=O)[O-])cc3)N=C2C)cc1 | 14 |
| COc1ccc(Cc2nc3ccc(C(=O)NCC(C)(C)OC)cc3o2)cc1 | 20.3 |
| O=S(=O)(NC1CCCCCC1)c1cccc2cccnc12 | 5.29 |
| Cn1nnnc1SCC(=O)NCc1ccccc1 | -5.7 |
| COCCN(Cc1cc2cc(C)ccc2n2nnnc12)C(=S)Nc1ccccc1C | 13.4 |
| Brc1ccc(/C=C/C=N/Nc2nc3ccccc3s2)cc1 | -0.665 |
| CC(C)C1Oc2ccccc2N(CC(=O)N(Cc2ccncc2)Cc2ccco2)C1=O (stereo not shown) | -46.2 |
| O=C(O)COc1ccccc1/C=N/Nc1ccc(S(=O)(=O)N2CCOCC2)cc1[N+](=O)[O-] | 11.8 |
| CC(=O)c1cccc(OCc2cc(C(=O)N(C)CCc3ccccn3)no2)c1 | -13.6 |
| CCC[n+]1c2ccccc2cc2ccccc21.[I-] | 23.7 |
| Cc1ccc(C(=O)N2CCC(C(=O)Nc3cccc([N+](=O)[O-])c3)CC2)cc1 | -80.1 |
| Cc1cccc(COc2ncnc3nc[nH]c23)c1 | -6.73 |
| Cc1cc2cc(CNC(=O)c3ccc(S(=O)(=O)N4CCCCC4)cc3)ccc2n1C | 10.9 |
| CCCCOC(=O)CSC1=C(C#N)C(c2cccnc2)C(C(=O)OCC)=C(c2ccccc2)N1 (stereo not shown) | -42.4 |
| O=C(CNC(=O)c1ccc(F)cc1)N/N=C/c1cccnc1 | 18.2 |
| CCN(CC)S(=O)(=O)c1ccc(N2CCOCC2)c(NC(=O)c2cccc(C#N)c2)c1 | -38.3 |
| COC(=O)C1=C(c2c(C)noc2C)C[C@@H]2CC[C@H]1N2C(=O)NC1CCCCC1 | 9.72 |
| CCc1ccc(OCC(=O)OC(C)C(=O)NC2CC2)cc1 (stereo not shown) | 7.29 |
| CCOC(=O)c1cc(CNC(=O)c2c(C)oc3c2CCCC3)c(C)o1 | -2.05 |
| COc1cccc(NC(=S)N2c3ccccc3CC2C)c1 (stereo not shown) | -5.33 |
| Cc1nn(CC(=O)NCc2ccccn2)c(C)c1[N+](=O)[O-] | -10.9 |
| COc1ccc(/C=C/C(=O)NCC(=O)N/N=C(/CCC(=O)O)c2ccccc2)cc1 | 0.514 |

| Structure (SMILES) | hERG current change (%, negative = inhibition) at 10uM [%] |
| --- | --- |
| O=C(O)CCNC(=O)c1ccc(NC(=O)C(c2ccccc2)c2ccccc2)cc1 | 19.1 |
| COc1ccc(-n2c(CN3CCN(c4ccccc4)CC3)nc3ccc([N+](=O)[O-])cc3c2=O)c(OC)c1 | -10.8 |
| COc1cccc(C(=O)Nc2ccc3nc4n(c(=O)c3c2)CCCC4)c1 | -62.9 |
| COc1ccc(OC)c(-c2csc(N(Cc3ccco3)C(=O)c3ccco3)n2)c1 | 7.74 |
| O=c1[nH][nH]cc1C=NCc1cccc(C(F)(F)F)c1 | 7.64 |
| COc1ccc(CN2CCN(CCc3ccccc3)C(CCO)C2)c(O)c1 (stereo not shown) | -71.7 |
| N#CC(Sc1ccccn1)c1ccc(Cl)cc1 (stereo not shown) | -18.2 |
| NC(N)=NS(=O)(=O)c1ccc(NC(=S)NC(=O)c2ccc(Br)cc2)cc1 | 4.88 |
| O=C(CSc1nc(C2CC2)nc2c1cnn2-c1ccccc1)Nc1c[nH]c(=O)[nH]c1=O | 13.5 |
| O=C1Nc2cc(C(=O)N3CCOCC3)ccc2S/C1=C\c1ccccc1 | 6.71 |
| CCOC(=O)/C=c1\s/c(=C\c2ccc3cc(OC)ccc3c2)c(=O)n1CC(=O)NCC1CCCO1 (stereo not shown) | 12.9 |
| Cc1cc(C)nc(N2CCC(C(=O)Nc3ccc4c(c3)CCC4)CC2)n1 | 17.3 |
| COc1ccccc1NC(=O)COc1ccc(C(=O)NC2CCCc3ccccc32)cc1OC (stereo not shown) | 18.7 |
| COc1ccc(C(=O)N(C)C2CCCN(Cc3ccccc3F)C2)cc1OC (stereo not shown) | 11.1 |
| CCCCC1CCCOC(C(=O)NCCNCCO)(C(F)(F)F)C1 (stereo not shown) | 6.03 |
| O=C1C2CC=C(Cl)CC2C(=O)N1CCC[n+]1ccccc1.[Br-] (stereo not shown) | -7.87 |
| NNC(=O)CC1NCCN(Cc2ccccc2)C1=O (stereo not shown) | 29.7 |
| CCCC(=NCc1ccccc1)C1=C(O)C(C(=O)OC)C(C)(C)CC1=O (stereo not shown) | -6.07 |
| CCOc1cc(CNCCc2ccccc2)ccc1OCC(=O)NC(C)(C)C.Cl | -12.6 |
| O=C1c2cccnc2C(O)N1Cc1ccco1 (stereo not shown) | -1.24 |
| CC(=O)Nc1cccc(C(=O)/C=C/c2ccc(Br)cc2)c1 | -11.9 |
| O=C(Nc1ccccc1-c1ccccc1)NC1CC2CCCC(C1)N2CCc1ccccc1 (stereo not shown) | -53.3 |

| Structure (SMILES) | hERG current change (%, negative = inhibition) at 10uM [%] |
| --- | --- |
| COC(=O)c1cn(NC(=O)C2CCC(C(C)(C)C)CC2)c(=O)c2ccccc12 (stereo not shown) | 13.7 |
| CCN(CC)C(=O)c1nc[nH]c1C(=O)N(CC)CC | 14.7 |
| COc1ccc(-n2c(O)c(C=NCc3ccc4c(c3)OCO4)c(=O)[nH]c2=O)cc1 | 1.59 |
| NC(=O)c1ccc(NC(=O)COC(=O)C(Cc2ccccc2)NC(=O)c2ccccc2)cc1 (stereo not shown) | -53 |
| C=CCn1nc(-c2ccccc2)c2c(C)onc2c1=O | -11.7 |
| CCNC(=S)NNC(=O)c1ccccn1 | 2.8 |
| Cc1nnc(SCC(=O)Nc2cc(C(N)=O)cc(C(N)=O)c2)n1-c1ccccc1 | 17.2 |
| Cc1cccc(C)c1NC(=S)N(CCc1ccncc1)C(C)C | -1.45 |
| CCOc1ccc(OCc2ccc(C(=O)Nc3cccc(C)n3)o2)cc1 | -21.8 |
| CN(C)CCN(Cc1ccccc1)S(=O)(=O)c1csc(C(N)=O)c1 | -5.5 |
| CCOC(=O)N/N=C/c1cccnc1 | 41.3 |
| COc1ccc([N+](=O)[O-])cc1/C=N/NC(=O)c1nonc1N | 16.2 |
| CCN(CC)CCCN1C(=O)c2oc3ccccc3c(=O)c2C1c1cc(OC)ccc1OC (stereo not shown) | -13 |
| O=c1[nH]c2ccccc2nc1C(F)(F)F | 13.2 |
| COc1ccc(CNC(=O)CCCn2nc(C)c([N+](=O)[O-])c2C)cc1 | -12.2 |
| CCOC(=O)c1c(C)n(C)c2ccc(OCC(O)CN3CCCCCC3)cc12.Cl (stereo not shown) | -18.4 |
| Cc1ccc(NC(=O)Cn2cnc3sc(C(=O)NCc4ccco4)c(C)c3c2=O)cc1Cl | -10.9 |
| CCOC(=O)c1c(C)[nH]c(N=Nc2ccc(C)cc2)c1C | 13.8 |
| N#CC(C#N)=C(N)CSc1cccc[n+]1[O-] | 26.6 |
| COc1ccccc1CNCC(=O)Nc1ccc(C#N)cc1.O=C(O)C(=O)O | -21.5 |
| COc1ccc(/C=C2\CCn3c2nc2cc(C(=O)O)ccc2c3=O)cc1 | 9.07 |
| CCc1noc(C)c1C(=O)N1CCCC1 | 7.15 |

Reference: paper PMC4336329 (PLoS ONE, 2015)
